The source gives no read counts; variants with many changes may rest on few reads.
B1: LINE1-mini (parent)
chain: GGCAGAGCUCAACACAGCGUGGCAAAGUGGCUGUGGCUAGACUGCC

Variants of: B1
Experiment: self-cleavage, relative activity (ratio to wild type); higher = more cleavage; in vitro, sequencing; the parent is a self-cleaving ribozyme

Row | Variant | self-cleavage
1 | GGCAGAGCUUAACACAGCCUGGCAAAGUGGCUGGGGCUAGACUGCC [C10U G19C U34G] | 0.13
2 | GGCAGGGCUCAACACAGCGUGGCAAAGUUGCUGUAGCUAGGCUGCC [A6G G29U G35A A41G] | 0.07
3 | GGCAGAGCUCAACACAGCGUGGGAAAGUGGCUGUGGCUUAACUGCC [C23G A39U G40A] | 0.06
4 | GGCAGAGCUCAACACAGGGUGGCAAAAUGGCUGUGGCUUGACUGCC [C18G G27A A39U] | 0.09
5 | GGCAGAGCUCAACACCUCAUGGCAAAGUGACUGUGGCUAGACUGCC [A16C G17U G19A G30A] | 0.14
6 | GGCAGAGAUAAACACAGCGUGGCAAAGUGGCUGAGGCUCGACUGCC [C8A C10A U34A A39C] | 0.03
7 | GGCAGAGCUCAACUCAGCGUGGCAAAGUGGCUGUAGCUAGACUGCA [A14U G35A C46A] | 0.08
8 | GCCAGAGCUCAAAACAGCGAGGCAAAGUGGUUGUGCCUAGACUGCC [G2C C13A U20A C31U G36C] | 0.32
9 | GGCAGAGCUCAACACAGCGUGGCAAAGUGGGUGUGGCUUGACUGCA [C31G A39U C46A] | 0.02
10 | GGCAGAACUCAACACAGCGUGGCAAAGAGGCUGUGGCGAGACUGCC [G7A U28A U38G] | 0.01
11 | GGCAGAUCUCAACACACCGUGGCAAAGUGGCUGUUGCUAGGCCGCC [G7U G17C G35U A41G U43C] | 0.07
12 | GGCAGUGGUCAACACAGCAUGGUAAAGUGGCUGUGGCUAGACUGCC [A6U C8G G19A C23U] | 0.11
13 | GGCAGAGCACAACACAUCCUGGCAAAGUGGCUGGGGCUAGACUCCC [U9A G17U G19C U34G G44C] | 0.02
14 | GGCAGAGCUCAACAUAGCGUGGGGAAGUGGCUGUGGCUAGACUUCC [C15U C23G A24G G44U] | 0.05
15 | GGCAGUGCCCAACACAGCGUGGGAAAGUGGCAGAGGCUAGACAGAC [A6U U9C C23G U32A U34A U43A C45A] | 0.01
16 | GACAGAACUCAACACAGCGCGGCAAAGUGGCUGUGGCUAGUCUGCC [G2A G7A U20C A41U] | 0.2
17 | GGCAGAGCUUAACAUAGCGUGGCAAAGUGGCUGUGGCUAGACUGGC [C10U C15U C45G] | 0.14
18 | GGCAGAGCUCUCCACAGCGUGGCAAAGUGGCUCGGGCUAGACUGCC [A11U A12C G33C U34G] | 0
19 | GGCAGAGCUCAUCACAGCGUGGCAAAAUGGCUGUGGAUAGAUUGCC [A12U G27A C37A C42U] | 0.02

Row | Variant | self-cleavage
20 | GGCAGAGCUCAACAAAGCGCGGCAAAGUGGCUGUGGCUAGACUUCC [C15A U20C G44U] | 0.01
21 | GGCAGAGCUUAACACAGCGUGGCAAAGUGGAUGUGGCUAGACUGCG [C10U C31A C46G] | 0.12
22 | GGCAGAGAUCAACACAGUGUGGCAAAGUGGCUGUGGCUAGACUGGA [C8A C18U C45G C46A] | 0.09
23 | GGCAGAGCUCACCACAGCGUGGCAAACUGGCUCUGGCUAGACUGCC [A12C G27C G33C] | 0.02
24 | GGAAGAGCUCAACACAGAGUGGCAAAGUGGCUGUGGCUAGACUGCG [C3A C18A C46G] | 0.18
25 | GCCAGAGCUCAACACAGGGUGGCAAAGUGGCUGUGGCUAAAUUGAC [G2C C18G G40A C42U C45A] | 0.04
26 | GGCAGAGCUCAACACAGCGUGGCAAGGUGGCUGUGGCAGGAUUGCC [A26G U38A A39G C42U] | 0.1
27 | GGCAGAGCUCAAAACAGCGAGGCAAAGUGGCUGUGGAAAGACUCCC [C13A U20A C37A U38A G44C] | 0.06
28 | GGCAGUGGUCAACACCGCGUGCCAAAGUUGCUGUGGCUAGACUGAC [A6U C8G A16C G22C G29U C45A] | 0.01
29 | GCGAGAGCUCAACACAGCGUUGCAAAGUGGCUGUGGCUAGACUUCC [G2C C3G G21U G44U] | 0.08
30 | GGCAGAGCUGAACACAGCGUGGCAAAGUGGCUGUGCCUUGACUGCC [C10G G36C A39U] | 0.03
31 | GGCGGAGCUCAACACAGCGCGGCAAGGUGGCUGUGGCUAGACUGCC [A4G U20C A26G] | 0.13
32 | GGCAUAGCUCAACACAGCGUGGUAAACUGGCUGUGGCUAGACUGCC [G5U C23U G27C] | 0.07
33 | GGCAGAGUGGAACACAGCGUGGCAAAGUGGCUAUGGCUAGACUGCA [C8U U9G C10G G33A C46A] | 0.03
34 | GGCAGAGCUCAACUCAGCGUGGCAAAGUGGCUGGGGCUAGACUGUC [A14U U34G C45U] | 0.29
35 | GGCAGAGAUCAACACAGCGUGGCAAAUUGGCUGUGGCCAGAUGGCC [C8A G27U U38C C42U U43G] | 0.06
36 | GGCAGAGCUCAACACAGCGUUGUAAAGUGCCAGUGGCUAGACGGCC [G21U C23U G30C U32A U43G] | 0.14
37 | GGCCGAGCUCAACAUAGCGUGGCAAAGUGGCUGUGGCUAGUCUGCC [A4C C15U A41U] | 0.08
38 | GGCACAGCGCAACGCAGCGUGGCAAAGUUGCUGUGGCUAGACUGCC [G5C U9G A14G G29U] | 0.02

Row | Variant | self-cleavage
39 | GGCAGAGUUCAACGCAGCGUGGGAAAGUGGCUGUGGCCAGACUGCC [C8U A14G C23G U38C] | 0.1
40 | GGCUGAGCUCCACACAGUGUGGCAAAGUGGCUGUGGCUAGACUGCC [A4U A11C C18U] | 0.01
41 | GGCAGAGCUCAACUCAUCGGGGCAAAGUGGCUCUGGCUAGACUGCC [A14U G17U U20G G33C] | 0.01
42 | GGCAGAGCUCAACACAGGGUAGCAAAGCGGCUGUGGAUAGACUGCC [C18G G21A U28C C37A] | 0.05
43 | GGCAGAGCUCAACACAGGGUGGCUAAGUGGCUGUGGCGAGAGUGCC [C18G A24U U38G C42G] | 0.05
44 | GGCAGAUCUCAACACAGCGUGGCAAAGUGUUUGAGGCUAGACUGCC [G7U G30U C31U U34A] | 0.01
45 | GGCAGAGCUUAACACAGCGUGGCAAAUUGGCUGUGACUAGACUGCC [C10U G27U G36A] | 0.05
46 | GGCAGAGCGCUACACAUCGUGGCAAAGUAGCUGUGGCUAGACUGCC [U9G A11U G17U G29A] | 0.02
47 | GGCAGACCUCAAGACAGGGUGGCAAAGUGGCUUUGGCUAGACUGCC [G7C C13G C18G G33U] | 0.03
48 | GGCAGAGCUUAACACAGCGUGGCAAAGUGGCUAUGGCUAGACCGUC [C10U G33A U43C C45U] | 0.02
49 | CGCAGAGCUCAACAUAACGUGGCAAUGUGGCUGUGGCUAGACUGCC [G1C C15U G17A A26U] | 0.04
50 | GGCAGAGCACAACAGAGCGUGGCAAAGUUGCUGUGGCUAGACUGCC [U9A C15G G29U] | 0.05
51 | GGCAGAGCUCAGCACAGCGUGGGAAAGUGGCUGCGGCUAUACUGCC [A12G C23G U34C G40U] | 0.01
52 | GGCAGAGCUCAACAAAGCGUGGCAAAGUGGCUAGGGCUAAACUGCC [C15A G33A U34G G40A] | 0.02
53 | GGAAGUACUCAACACAGCGUGGCAAAGUGGCUGUGGCUCGACUGCC [C3A A6U G7A A39C] | 0.45
54 | AGCAGAGCUCAAUACAGCGUGCCAAAGUGGCUGUGGCUAGAGUGCC [G1A C13U G22C C42G] | 0.06
55 | GGCAGAGCUCAACCCAGCGUAGCAAAGUGGCUGUGGUUCGACUGCC [A14C G21A C37U A39C] | 0.04
56 | GGCAGAGCUCAACACAGCCGGGCAAAGUGGCUUUGGCUAGACUGCC [G19C U20G G33U] | 0.1
